Three compounds from ChEMBL document CHEMBL4359827 (ACS Med Chem Lett, 2019) can be followed below.

Each structure is given as a SMILES string.

Some targets named below: Cytochrome P450 2C19 (Homo sapiens, UniProt P33261); Cytochrome P450 2D6 (Homo sapiens, UniProt P10635); Cytochrome P450 2C9 (Homo sapiens, UniProt P11712).
The target of another experiment is T1, Cytochrome P450 1A2 (Homo sapiens, UniProt P05177).
T1 sequence (P05177 whole entry): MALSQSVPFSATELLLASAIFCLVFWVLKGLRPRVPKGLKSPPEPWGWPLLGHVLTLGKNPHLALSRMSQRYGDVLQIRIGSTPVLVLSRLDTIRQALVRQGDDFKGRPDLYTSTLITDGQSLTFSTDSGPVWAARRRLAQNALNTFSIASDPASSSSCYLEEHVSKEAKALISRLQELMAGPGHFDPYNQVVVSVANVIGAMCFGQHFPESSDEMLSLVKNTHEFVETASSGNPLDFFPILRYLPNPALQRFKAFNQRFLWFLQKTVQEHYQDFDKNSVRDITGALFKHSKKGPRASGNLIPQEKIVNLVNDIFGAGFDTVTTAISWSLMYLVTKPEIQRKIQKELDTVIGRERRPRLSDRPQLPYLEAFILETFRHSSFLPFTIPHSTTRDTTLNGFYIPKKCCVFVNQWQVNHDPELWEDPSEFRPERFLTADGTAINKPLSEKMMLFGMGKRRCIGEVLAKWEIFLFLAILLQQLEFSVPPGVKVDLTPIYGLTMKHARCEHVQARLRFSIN

Cytochrome P450 2D6, sequence (P10635 whole entry): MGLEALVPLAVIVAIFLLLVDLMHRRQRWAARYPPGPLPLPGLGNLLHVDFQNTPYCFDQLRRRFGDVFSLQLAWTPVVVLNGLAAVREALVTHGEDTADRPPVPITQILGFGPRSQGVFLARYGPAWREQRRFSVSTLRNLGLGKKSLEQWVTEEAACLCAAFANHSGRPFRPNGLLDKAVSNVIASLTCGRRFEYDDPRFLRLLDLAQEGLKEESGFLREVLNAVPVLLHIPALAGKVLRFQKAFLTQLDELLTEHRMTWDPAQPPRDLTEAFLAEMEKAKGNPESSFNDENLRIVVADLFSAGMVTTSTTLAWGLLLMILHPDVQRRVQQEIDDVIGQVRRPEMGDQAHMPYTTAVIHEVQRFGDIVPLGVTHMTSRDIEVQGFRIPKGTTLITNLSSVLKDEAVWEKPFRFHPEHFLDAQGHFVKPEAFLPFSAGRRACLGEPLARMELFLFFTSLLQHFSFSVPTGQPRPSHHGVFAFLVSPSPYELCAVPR
Cytochrome P450 2C19, sequence (P33261 whole entry): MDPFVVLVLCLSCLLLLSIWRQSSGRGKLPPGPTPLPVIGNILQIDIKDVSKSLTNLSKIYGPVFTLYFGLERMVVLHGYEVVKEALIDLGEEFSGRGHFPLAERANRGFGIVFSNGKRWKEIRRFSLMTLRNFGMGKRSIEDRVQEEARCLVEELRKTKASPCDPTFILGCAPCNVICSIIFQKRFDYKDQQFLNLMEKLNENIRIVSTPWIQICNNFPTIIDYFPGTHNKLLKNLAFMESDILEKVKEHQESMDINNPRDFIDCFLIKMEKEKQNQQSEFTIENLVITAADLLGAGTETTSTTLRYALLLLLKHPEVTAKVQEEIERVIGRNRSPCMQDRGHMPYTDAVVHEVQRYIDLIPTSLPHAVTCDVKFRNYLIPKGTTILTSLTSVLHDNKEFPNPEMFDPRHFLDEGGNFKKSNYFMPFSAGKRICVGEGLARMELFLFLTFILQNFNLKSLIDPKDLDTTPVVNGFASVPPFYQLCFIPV
Cytochrome P450 2C9, sequence (P11712 whole entry): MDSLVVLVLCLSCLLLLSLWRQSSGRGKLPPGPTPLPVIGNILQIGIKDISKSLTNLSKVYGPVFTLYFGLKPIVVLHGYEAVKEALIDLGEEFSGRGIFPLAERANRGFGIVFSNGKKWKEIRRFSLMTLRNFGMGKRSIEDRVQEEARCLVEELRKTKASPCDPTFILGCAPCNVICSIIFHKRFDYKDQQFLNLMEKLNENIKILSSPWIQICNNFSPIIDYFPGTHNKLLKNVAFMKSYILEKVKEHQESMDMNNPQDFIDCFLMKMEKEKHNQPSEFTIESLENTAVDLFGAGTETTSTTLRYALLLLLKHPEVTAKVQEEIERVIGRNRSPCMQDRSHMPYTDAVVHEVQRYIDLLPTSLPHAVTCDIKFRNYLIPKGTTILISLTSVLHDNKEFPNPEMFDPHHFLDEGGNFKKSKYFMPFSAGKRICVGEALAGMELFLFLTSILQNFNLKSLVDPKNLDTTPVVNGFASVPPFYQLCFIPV

Turning to `Cn1cc(-c2ccc(N3CCC(C4c5c(F)cccc5-c5cncn54)CC3)cc2F)cn1` (stereo unspecified), the half-maximal inhibitory concentration (IC50) is 6.81 µM on Cytochrome P450 2C19, above 10 µM against Cytochrome P450 2D6, 7.4 µM against Cytochrome P450 2C9 and above 10 µM on Cytochrome P450 1A2.

`Cn1cc(-c2ccc(N3CCC(C4c5c(F)cccc5-c5cncn54)CC3)c(F)c2)cn1` (stereo unspecified): the 50% inhibitory concentration (IC50) is 1.15 µM at Cytochrome P450 2C19, 9.61 µM against Cytochrome P450 2D6 and 8.95 µM against Cytochrome P450 1A2.

Turning to `Cc1cc(N2CCC(C3c4c(F)cccc4-c4cncn43)CC2)ccc1-c1cnn(C)c1` (stereo unspecified), the IC50 was 1.57 µM at Cytochrome P450 2C19, 4.51 µM on Cytochrome P450 2D6, 0.3 µM against Cytochrome P450 2C9 and above 10 µM against Cytochrome P450 1A2.
